Laboratory results: the RNAGym collection of RNA variant scans (doi:10.7554/elife.90254)
Read counts are not given, so values of variants with three or more changes are uncertain.

B1: OR4K15 (parent)
chain: GUUAACGGUCAUAGGCCAUGGAAACUAGGAGCACCAUUUCGCUGCCAGUGAAGAAAUGAACAAAGAAAAUCUGGGCCAGGCAGGCAUCAAAAGAAAUAGUCUUGCGCUCAACCAGAAAGUCUGUAAUCAUUUUAAGGGUA

Variants of: B1
Assay: self-cleavage, relative activity (ratio to wild type); higher = more cleavage; in vitro, sequencing; the parent is a self-cleaving ribozyme

| Variant | self-cleavage |
| --- | --- |
| GUUGACGGUCAUAGGCCAUGGAAACUAGGAGCACCAUUUCGCUGCCAGUGAAGAAAUGAACAAAGAAAAUCUGGGCCAGGCGGGCAUCAAAAGAAAUAGUCUUGCGCUCAACCAGAAAGUCUGUAAUCAAAUUAAGGGUA [A4G A82G U130A U131A] | 0.02 |
| GUUGACGGUCAUAGGCCAUGGAAACUAGGAGCACCAUUUCGCUGCCAGUGAAGAAAUGAACAAAGAAAAUCUGGGCCAGGCAGGCAUCUAAAGAAAUAGUCUUGCGCUCGGCCAGAAAGUCUGUAAUCAUUUUAAGGGUA [A4G A89U A110G A111G] | 0.05 |
| GUUGACGGUCAUAGGCCAUGGAAACUAGGAGCACCAUUUCGCUGCCAGUGAAGAAAUGAACAAAGAAAAUCUGGGCCAGGCAGGCAUCAAAGGAAAUAGUCCUGCGCUCAACCAGAAAGUCUGUAAUCAUUUUAAGGGUA [A4G A92G U102C] | 1.29 |
| GUUGACGGUCAUAGGCCAUGGAAACUAGGAGCACCAUUUCGCUGCCAGUGAAGAAAUGAACAAAGAAAAUCUGGGCCAGGCAGGCAUCAAAAGAGAUAGUCUUGCGCUCGACCAGAAAGUCUGUAAUCAUUUUAAGGGUA [A4G A95G A110G] | 0.19 |
| GUUGACGGUCAUAGGCCAUGGAAACUAGGAGCACCAUUUCGCUGCCAGUGAAGAAAUGAACAAAGAAAAUCUGGGCCAGGCAGGCAUCAAAAGAAAUGGUCUUGCGCUCAACCAGAAAGUCUGUAAUCAUUUUAAGGGUU [A4G A98G A140U] | 0.7 |
| GUUGACGGUCAUAGGCCAUGGAAACUAGGAGCACCAUUUCGCUGCCAGUGAAGAAAUGAACAAAGAAAAUCUGGGCCAGGCAGGCAUCAAAAGAAAUAGUCUUGCGCUCAACCUGAAAGUCUGUAAUCAUUCUAAGGGUA [A4G A114U U132C] | 0.19 |
| GUUGACGGUCAUAGGCCAUGGAAACUAGGAGCACCAUUUCGCUGCCAGUGAAGAAAUGAACAAAGAAAAUCUGGGCCAGGCAGGCAUCAAAAGAAAUAGUCUUGCGCUCAACCAGGAAGUCUGUAAUCAUCUUAAGGGUA [A4G A116G U131C] | 0.31 |
| GUUGACGGUCAUAGGCCAUGGAAACUAGGAGCACCAUUUCGCUGCCAGUGAAGAAAUGAACAAAGAAAAUCUGGGCCAGGCAGGCAUCAAAAGAAAUAGUCUUGCGCUCAACCAGAAGGUCUGGAAUCAUUUUAAGGGUA [A4G A118G U124G] | 0.18 |
| GUUGACGGUCAUAGGCCAUGGAAAUUAGGAGCACCAUUUCGCUGCCAGUGAAGAAAUGAACAAAGAAAAUCUGGGCCAGGCUGGCAUCAAAAGAAAUAGUCUUGCGCUCAACCAGAAAGUCUGUAAUCAUUUUAAGGGUA [A4G C25U A82U] | 0.25 |
| GUUGACAGUCAUAGGCCAUGGAAACUAGGAGCACCAUUUCGCUGCCAGUGAAGAAAUGAACAAAGAAAAUCUGGGCCAGGCAGGCAUCAAAGGAAAUAGUCUUGCGCCCAACCAGAAAGUCUGUAAUCAUUUUAAGGGUA [A4G G7A A92G U108C] | 0.04 |
| GUUGACGAUCAUAGGCCAUGGAAACUAGGAGCACCAUUUCGCCGCCAGUGAAGAAAUGUACAAAGAACAUCUGGGCCAGGCAGGCAUCAAAAGAAAUAGUCUUGCGCUCAACCAGAAAGUCUGUAAUCAUUUUAAGGGUA [A4G G8A U43C A59U A68C] | 1.31 |
| GUUGACGGUCAUAAGCCAUGGAAACUAGGAGCACCAUUUCGCUGCCAGUGAAGAGAUGAACAAAGAAAAUCUGGGCCAGGCAGGCAUCAAGAGAAAUAGUCUUGCGCUCAACCGGAAAGUCUGUAAUCAUUUUAGGGGUA [A4G G14A A55G A91G A114G A135G] | 0.16 |
| GUUGACGGUCAUAGGCCAUAGAAACUAGGAGCACCAUUUCGCUGCCAGUGAAGAAAUGAACAAAGAAAAUCUGGGCCAGGCGGGCAUCAAAAGAAAUAGUCUUGCGCUCAACCAGAAAGUCUGUAAUCAUUUUAAGGGUA [A4G G20A A82G] | 1.04 |
| GUUGACGGUCAUAGGCCAUGGAAACUAGGAGCACCAUUUCGCUGCCAGUAAAGAAAUGAACAAAGAAAAUCUGGGCCAGGCAGGCAUCAAAAGAAAUAAUCUUGCGCUCAACCAGAAAGUCUGUAAUCAUUUUAAGGGUA [A4G G50A G99A] | 1.1 |
| GUUGACGGUCAUAGGCCAUGGAAACUAGGAGCACCAUUUCGCUGCCAGUGAAGAAAUAAACAAAGAAAAUCUGGGCCAGGCAGACAUCAAAAGAAAUAGUCUUGCGCUCAACCAGAAAGUCUGUAGUCAUUGUAAGGGUA [A4G G58A G84A A126G U132G] | 2.11 |
| GUUGACGGUCAUAGGCCAUGGAAACUAGGAGCACCAUUUCGCUGCCAGUGAAGAAAUGAACAAAGAAAAUCUGGCCCAGGCAGGCAUCAAAAGAAAUAGUCUCGCGCUCAACCAGAAAGUCUGUAAUCAUUUCAAGGGUA [A4G G75C U103C U133C] | 0.07 |
| GUUGACGGUCAUAGGCCAUGGAAACUAGGAGCACCAUUUCGCUGCCAGUGAAGAAAUGAACAAAGAAAAUCUGGGCCAGGCAUGCAUCAAAAGAAAUAGUCUUGCCCUCAACCAGAAAGUCUGUAAUCGUUUCAAGGGUA [A4G G83U G106C A129G U133C] | 0.04 |
| GUUGACGGCCAUAGGCCAUGGAAACUAGGAGCACCAUUUCGCUGCCAGUGAAGAAGUGAACAAAGGAAAUCUGGGCCAGGCAGGCAUCAAAAGAAAUAGUCUUGCGCUCAACCAGAAAGUCUGUAAUCAUUUUAAGGGUA [A4G U9C A56G A66G] | 1.5 |
| GUUGACGGCCAUAGGCCAUGGAAACUAGGAGCACCAUUUCGCUGCCAGUGAAGAAAUGGACAAAGAAAAUCUGGGCCAGGCAGGCAUCAAAAGAAAUAGUCUUGCGCUCAACCAGAAAGUCUGUAAUCAUUUUAAGGGUA [A4G U9C A59G] | 0.96 |
| GUUGACGGCCAUAGGCCAAGGAAACUAGGAGCACCAUUUCGCUGCCAGUGGAGAAAUGAACAAAGAAGAUCUGGGCCAGGCAGGCCUCAAAAGAAAUAGUCUUGCGCUCAACCAGAAAGUCUGUAAUCAUUUGAAGGGUA [A4G U9C U19A A51G A68G A86C U133G] | 0.56 |
| GUUGACGGCCAUAGGCCAUGGAAACUAGGAGCACCAUCACGCUGCCAGUGAAGAAAUGAACAAAGAAAAUCUGGGCCAGGCAGGCAUCUAAAGAAAUAGUCUUGCGCUCAACCAGAAAGUCUGUAAUCAUUUUAAGGGUA [A4G U9C U38C U39A A89U] | 1.75 |
